The supplement of paper PMC6531468
Some of the results follow. These are enrichments in a pooled selection; single values are uncertain. Scores sum up all selected molecules that hold the word; the word was not tested alone.

Legend:
Test in all cases: 6-mer SELEX enrichment z-score vs GST control; IMP3 is the RNA-binding protein IGF2BP3; higher = more enriched by binding
IMP3 KH1-4 = details: construct: KH1-4 (164-579); SELEX round: R4
Protocol: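 SELEX-seq with GST-tagged IMP3 KH1-4 (Pro164-Lys579) and an N40 RNA pool, round 4. 6-mer z-score of sequence-tag enrichment normalised to the corresponding GST SELEX round; RNA k-mers written as DNA (T for U).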

IMP3 RRM1-2 = details: construct: RRM1-2 (1-163); SELEX round: R2
Chain of IMP3 RRM1-2 (chain, as listed by the source): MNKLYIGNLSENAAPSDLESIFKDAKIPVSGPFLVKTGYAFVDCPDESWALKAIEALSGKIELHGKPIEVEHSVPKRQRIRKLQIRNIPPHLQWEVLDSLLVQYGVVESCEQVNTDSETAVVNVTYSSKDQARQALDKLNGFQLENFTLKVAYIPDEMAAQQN
Protocol: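 SELEX-seq with GST-tagged IMP3 RRM1-2 (Met1-Asn163) and an N40 RNA pool, round 2. 6-mer enrichment z-score normalised to GST SELEX. RNA written as DNA (T = U).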

IMP3 full-length = IMP3 full-length (UniProt O00425); details: construct: FL IMP3 (1-579); SELEX round: R4
Chain of UniProt O00425 (O00425 whole entry): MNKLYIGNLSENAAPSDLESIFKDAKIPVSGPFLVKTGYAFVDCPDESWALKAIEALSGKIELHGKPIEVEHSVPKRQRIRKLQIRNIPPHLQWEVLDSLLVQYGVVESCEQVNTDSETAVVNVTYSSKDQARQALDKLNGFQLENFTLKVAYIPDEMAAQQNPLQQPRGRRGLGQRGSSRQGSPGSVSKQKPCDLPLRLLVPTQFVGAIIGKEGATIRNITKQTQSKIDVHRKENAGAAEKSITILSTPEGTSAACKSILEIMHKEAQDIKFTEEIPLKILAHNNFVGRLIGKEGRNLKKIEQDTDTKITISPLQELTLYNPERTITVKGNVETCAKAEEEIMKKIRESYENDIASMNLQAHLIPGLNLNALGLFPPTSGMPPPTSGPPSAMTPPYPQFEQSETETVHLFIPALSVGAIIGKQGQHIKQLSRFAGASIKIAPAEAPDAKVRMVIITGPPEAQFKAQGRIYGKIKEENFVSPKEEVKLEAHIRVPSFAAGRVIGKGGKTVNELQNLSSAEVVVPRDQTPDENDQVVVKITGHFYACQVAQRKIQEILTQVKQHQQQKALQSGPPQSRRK
Protocol: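 SELEX-seq with GST-tagged full-length IMP3 and an N40 RNA pool, round 4. Each 6-mer is scored as an enrichment z-score of sequence tags containing it, normalised to the matching GST SELEX round. RNA written as DNA (T = U).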

IMP3 KH1-2 = details: construct: KH1-2 (164-376); SELEX round: R4
Chain of IMP3 KH1-2 (chain, as listed by the source): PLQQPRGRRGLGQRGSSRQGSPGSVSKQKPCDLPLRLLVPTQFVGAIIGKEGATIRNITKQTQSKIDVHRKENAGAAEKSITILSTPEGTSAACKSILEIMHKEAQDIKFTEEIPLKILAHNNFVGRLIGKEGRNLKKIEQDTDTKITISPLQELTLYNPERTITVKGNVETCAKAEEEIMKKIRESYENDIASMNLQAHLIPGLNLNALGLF
Protocol: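 SELEX-seq with GST-tagged IMP3 KH1-2 (Pro164-Phe376) and an N40 RNA pool, round 4 (stringent 300/600 mM KCl washes). 6-mer z-score of sequence-tag enrichment normalised to the corresponding GST SELEX round; RNA k-mers written as DNA (T for U).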

IMP3 KH3-4 = details: construct: KH3-4 (377-579); SELEX round: R4
Chain of IMP3 KH3-4 (chain, as listed by the source): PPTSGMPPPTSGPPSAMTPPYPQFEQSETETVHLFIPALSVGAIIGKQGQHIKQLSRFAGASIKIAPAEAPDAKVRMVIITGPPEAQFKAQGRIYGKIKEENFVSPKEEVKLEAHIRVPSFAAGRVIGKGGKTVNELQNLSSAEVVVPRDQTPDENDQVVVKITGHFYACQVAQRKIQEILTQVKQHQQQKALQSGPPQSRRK
Protocol: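 SELEX-seq with GST-tagged IMP3 KH3-4 (Pro377-Lys579) and an N40 RNA pool, round 4. 6-mer z-score of sequence-tag enrichment normalised to the corresponding GST SELEX round; RNA k-mers written as DNA (T for U).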

Chain of IMP3 KH1-4 (chain, as listed by the source): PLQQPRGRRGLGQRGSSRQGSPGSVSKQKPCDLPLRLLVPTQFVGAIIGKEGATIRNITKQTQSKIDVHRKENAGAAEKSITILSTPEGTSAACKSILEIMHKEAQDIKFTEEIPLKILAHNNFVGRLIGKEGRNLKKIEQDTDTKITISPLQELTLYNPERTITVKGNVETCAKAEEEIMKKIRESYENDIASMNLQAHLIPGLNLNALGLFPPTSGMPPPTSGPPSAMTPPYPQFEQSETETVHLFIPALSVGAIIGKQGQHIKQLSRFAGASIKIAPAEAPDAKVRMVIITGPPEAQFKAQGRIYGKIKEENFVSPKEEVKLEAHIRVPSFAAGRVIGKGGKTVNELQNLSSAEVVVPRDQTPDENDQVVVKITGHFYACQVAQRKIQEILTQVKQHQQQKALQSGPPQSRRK

Sequence | 6-mer SELEX enrichment z-score (IMP3 KH1-4) | 6-mer SELEX enrichment z-score (IMP3 RRM1-2) | 6-mer SELEX enrichment z-score (IMP3 full-length) | 6-mer SELEX enrichment z-score (IMP3 KH1-2) | 6-mer SELEX enrichment z-score (IMP3 KH3-4)
CTAGAA | -0.036 | -0.88 | -0.715 | -0.208 | 0.114
TGACCG | -0.643 | -1.09 | -0.944 | -0.711 | -0.986
AGTACG | 0.101 | -0.207 | 0.165 | -0.11 | 0.027
TTAAAC | 0.614 | -0.78 | -0.714 | 0.502 | 1.18
TACAAG | 0.416 | 0.081 | 0.182 | 0.33 | 0.535
